Results reported in the supplement of paper PMC3334620.
Whole data set: some 33,000 sequences, median “E-score (-0.5 to 0.5)” near -0.012, cut for the highest 2% near 0.29. The list shows a part of the results.

Biological target: T1, Ybr033w (UniProt P38073)
T1 sequence: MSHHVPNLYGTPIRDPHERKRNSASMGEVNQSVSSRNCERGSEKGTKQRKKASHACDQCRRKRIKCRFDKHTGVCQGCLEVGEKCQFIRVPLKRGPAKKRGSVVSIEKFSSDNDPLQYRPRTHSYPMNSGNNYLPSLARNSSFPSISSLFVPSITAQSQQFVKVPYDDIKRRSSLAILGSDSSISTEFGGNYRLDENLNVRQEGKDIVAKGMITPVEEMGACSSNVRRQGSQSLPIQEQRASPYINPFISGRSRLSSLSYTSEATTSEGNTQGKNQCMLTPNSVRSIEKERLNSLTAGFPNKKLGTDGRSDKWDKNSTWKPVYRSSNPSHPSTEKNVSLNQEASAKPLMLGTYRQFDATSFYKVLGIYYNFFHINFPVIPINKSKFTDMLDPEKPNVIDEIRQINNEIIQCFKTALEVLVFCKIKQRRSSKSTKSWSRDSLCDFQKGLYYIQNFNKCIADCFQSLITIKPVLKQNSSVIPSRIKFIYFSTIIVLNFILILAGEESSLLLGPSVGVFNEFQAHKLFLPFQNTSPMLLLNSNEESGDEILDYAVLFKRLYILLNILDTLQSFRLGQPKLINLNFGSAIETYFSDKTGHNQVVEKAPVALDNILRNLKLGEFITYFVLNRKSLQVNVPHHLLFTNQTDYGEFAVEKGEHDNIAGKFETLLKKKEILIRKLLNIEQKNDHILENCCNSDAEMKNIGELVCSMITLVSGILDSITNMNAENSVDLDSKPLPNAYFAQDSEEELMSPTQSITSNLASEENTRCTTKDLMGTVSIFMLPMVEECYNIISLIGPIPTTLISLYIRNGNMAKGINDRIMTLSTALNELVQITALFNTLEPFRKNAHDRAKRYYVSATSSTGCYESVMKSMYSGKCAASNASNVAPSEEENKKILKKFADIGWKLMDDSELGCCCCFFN
Test: PBM E-score (8-mer binding enrichment) (E-score (-0.5 to 0.5)); higher = stronger / more preferred TF binding; most listed sequences are background and not binding sites
Conditions: protein concentration: 200 nM; construct: GST-full length
In short: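 Using PURExpress in vitro transcription/translation, GST-tagged yeast transcription factors were made in full-length or DNA-binding-domain form. These were applied at about 100-200 nM to double-stranded universal all-10-mer Agilent arrays, and bound protein was detected with fluorescent anti-GST. Scans were normalised with masliner before the Universal PBM Analysis Suite assigned E-scores to ungapped eight-base words pooled with their reverse complements.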

Sequence	PBM E-score
ATGCCGTC	-0.134
AAAGCTCC	-0.214
AACACTCC	0.0733
CTCCGACC	-0.291
AACGGGTG	-0.206
CCCCGGCG	-0.337
ACCCGCTG	-0.169
AGCTAAGC	-0.181
CAACTCCG	-0.0556
AACGTAGA	0.0243
CTCTTGCC	-0.061
ATCCGCAA	0.0132
CTTTTCGC	0.241
TCAAAACA	0.298
CCTGCCAC	-0.115
TCCGACAA	-0.0736
CGGGTGAG	-0.164
TATAAGAA	0.129
ATGCTCTA	-0.12
AATTTGTC	0.103
CTTATAAG	0.0621
GAATGAAA	0.141
CGGTGTCA	-0.21
ACTAGATG	0.105
CCGGTAAG	0.0788

Sequence	PBM E-score
TAACGCGA	0.0926
GCGCTCTA	-0.159
GATCGCGA	-0.0152
TGACGAAA	0.182
TACGGAGA	0.101
CTGTACAA	0.133
TATCTAAA	0.103
AAAAAGCC	0.126
AGATTGTA	0.2
ATGGGGAG	-0.00442
GGTTTCGA	0.0406
CAGGGCAC	-0.0829
GCAGTACC	0.0191
TACACGGA	0.17
GCCACAGC	-0.153
ATCTGTAG	0.0631
AAGCGACG	-0.285
AACTCAAA	0.228
GTAGGTGA	-0.106
CGTAAGCC	0.0973
TCAGATGA	0.0933
AGTAATAG	0.218
AGGGGCCA	-0.189
CTCGACTA	-0.142
CGATGGCC	-0.119

Sequence	PBM E-score
AAAACGTC	0.102
CACATCGC	-0.228
TATGTACA	0.00907
GTCAAAAC	0.025
GATAGTAA	0.19
AGGCCCGC	-0.196
AAAGCCAC	0.0888
CCCACTAG	-0.361
GTGAGCTA	-0.00306
TGCATCAA	0.272
GGCGCATA	0.0428
ATATAAAG	0.211
CTCTGAAG	-0.113
CATGAGAC	-0.0524
ACTGCCTC	-0.0835
CAAGACCG	-0.0876
AACCGTCT	-0.146
TGGCCTAA	-0.088
ATCATCCA	0.122
TGGCATAA	0.21
CGACATAG	-0.0646
GGGGCGAC	-0.284
TCCTGCAA	-0.00079
CGTACGCA	-0.211
CTGGAGAC	-0.0559

Sequence	PBM E-score
TGACTGCA	-0.239
AAAGGACG	-0.0775
AAAAATTG	0.221
TAGAAGAA	0.0772
CGCCATAC	-0.0342
CCGAAGTA	0.113
AGTTTTAT	0.214
CAAATAAC	0.214
AATCAACT	0.183
ACATCGCC	-0.102
CGTTCTTA	0.0158
CAATGCCA	0.0533
AACCATTC	0.166
ATGTCCCG	-0.103
GGGCCTAC	-0.188
CACTGGCG	-0.0439
CCTACAAA	-0.181
GCACCACC	-0.133
CGGTGAGA	0.0625
AGACCCGG	-0.0434
ACCCGAGA	-0.0852
ACTGTGCT	0.0906
CAATACAC	-0.00219
GACGACAA	0.293
AAACGCTA	0.00151

Sequence	PBM E-score
GTGTTACA	0.036
AGGCGATA	-0.215
GCCGTAGC	-0.22
CGTCAGAG	-0.124
CTATTAAG	0.0575
TCACGGAA	0.162
AGCCGCCA	-0.371
CGGGCTCA	-0.288
AAGCATCC	-0.179
AGTAAAAT	0.243
ATTGGAAA	0.132
AACCACAC	0.0524
TATCAATA	0.257
CAATGCAA	0.0602
GTACCTTA	0.0785
GCCTAACA	0.0251
CTGACAGA	0.0639
CGGAGACC	-0.102
AGGGAGAT	-0.207
AAGTGAAC	0.00184
CAAATGTG	0.204
GTGCTCCA	-0.217
ACAAAAGC	0.101
ATGATACC	0.0927
AACGCTGC	-0.147

Sequence	PBM E-score
GCTCGTAA	0.122
ACTCGGCA	-0.0783
GCCACTAA	0.0425
GCACACAA	0.131
AAGTGTCA	-0.124
AAGTAAAA	0.153
AATCCAAG	0.228
TACCTATA	0.0923
TCCGGACA	-0.00786
AAGCCGAA	0.186
ACTGACTA	-0.0389
GTTTAATA	0.264
ACCTCTAT	0.0597
CGCCGCCA	-0.218
CCGTACCC	-0.263
AAAACCTA	0.259
CCACCTGA	-0.00429
ACGGCCTG	-0.189
GGAACGCC	-0.311
AAAATCAA	0.221
AACACCGC	-0.118
AGTTCGGA	-0.0376
TGTCTTAA	0.0535
ATCACTAC	0.0771
ATTTGCAA	0.131

Sequence	PBM E-score
CAGGCGGA	0.122
GTCACTCA	0.103
TAAAGAGA	0.114
GCAATCTA	0.0545
ACTGCGTG	-0.0658
TGATAACA	0.176
CAGCGATC	-0.107
GCAGCTCA	-0.183
AGGTCGCA	-0.0726
GTTTCAAA	0.157
AGGAGGGA	-0.232
AGATAAAT	0.286
GACACCAC	-0.192
AATGTAGC	0.0119
ACATACTC	0.104
CGTAGTGA	-0.0527
ACGGCAGC	-0.211
CACGCACG	-0.0844
ACAGAGAT	0.0912
ATTTTGCC	0.19
ATTGGGTG	0.153
TGCAGTAA	0.0493
ACCGTGGG	-0.225
CATCGTGG	-0.198
ACTAGGCA	-0.118

Sequence	PBM E-score
GTCCGGAA	0.19
AATATCTC	0.232
GTCCTCGA	-0.0745
ACAGAGCA	0.0556
ACTCATTA	0.0768
ATATTGCG	0.035
ACGGTGAT	-0.045
AGCAACAA	0.205
CAACGCGC	0.0456
AATACCCC	-0.23
CGCCTCAG	-0.182
ATTTGATC	0.198
CCTATCTA	-0.115
AAAACCAG	0.0856
ATGGAATA	0.316
CCTAGAAC	0.0862
TAATCCCA	-0.0193
ATCCGTCG	-0.00319
GATTGGAC	0.00823
GAACTGAC	-0.0888
CTGGTCTC	-0.221
ACGTTGCC	-0.239
ACCCATTG	-0.00202
GCAACCAC	-0.0821
AGTTGGAG	-0.0321

Sequence	PBM E-score
ACAACGCA	-0.121
CCACTAAA	0.11
AGAGCGAA	0.125
GAGGGGTA	-0.17
GCTCATGA	0.0368
CATTAGAC	-0.0978
GGGTTTAC	0.118
TATAAATA	0.289
ATACCTAA	0.316
ATACGCCG	-0.149
AGCGAGTA	-0.0264
GGATGGCC	-0.431
AGTGCCAA	-0.0839
ACTGGCAC	-0.075
GATCTCAA	0.0631
CTGAGACC	-0.291
AAACTAGC	0.0348
GGATAAAC	0.456
AACCTGCA	-0.016
